This series has as its system p53. The series can be described thus: p53-responsive BP100-luciferase reporter in JAR cells. The series is classed as cell-based, human. (Reporter assays use an easily measured gene product as a stand-in for the process of interest.)

Strand notation (5' to 3'): a small letter for the sugar, then the base; units joined by * are phosphorothioate-linked, units joined directly phosphodiester-linked; [ ] holds rarer units or linkages, { } end groups; capitals alone tell only the bases. d = 2'-deoxy (DNA)

`CC[C@@]1(O)C(=O)OCc2c1cc1n(c2=O)Cc2cc3ccccc3nc2-1` [CPT, camptothecin]: the “activation of the p53 reporter” value (JAR BP100-luc, 48 h, AS5 200 nM, CPT alone, AS5 alone or co-incubation) is recorded as 3-4 fold.

Consider “AS7: antisense oligonucleotide SEQ ID NO:29, 5′-TGAAACTGAATCCTGATCCA-3′ (DNA dT*dG*dA*dA*dA*dC*dT*dG*dA*dA*dT*dC*dC*dT*dG*dA*dT*dC*dC*dA)”, for which the “induction of p53 activity among the initial antisense oligonucleotides tested” value is on record as “most effective”.

The values are drawn from patent publication US6946447B2, “MDM2-specific antisense oligonucleotides” (Hybridon, Inc., priority 1997, dated 2005).
